What all share (test): pull-down; GST fusions (from E. coli) immobilized on GSH sepharose, incubated with total protein extract from S. cerevisiae transformants containing the HA fusion; washed twice with buffer A1, eluted with free GSH; anti-HA blot; only the target purified
The target in experiment [1] is T1, GST–Ino2 TAD1 D20K (S. cerevisiae) (UniProt P26798).
T1 sequence: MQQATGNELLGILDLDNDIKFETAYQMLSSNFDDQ

Sequences of proteins named here, by UniProt entry; tags and fusion partners are left off. Residues count along the entry.
UniProt P04386, residues 768-881: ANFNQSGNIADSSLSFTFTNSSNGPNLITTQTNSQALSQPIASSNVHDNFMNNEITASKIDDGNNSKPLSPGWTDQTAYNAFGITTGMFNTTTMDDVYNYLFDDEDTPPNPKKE

Experiment [2] deals with T2, GST–Ino2 TAD2 (aa 101–135) (S. cerevisiae) (UniProt P26798).
T2 sequence: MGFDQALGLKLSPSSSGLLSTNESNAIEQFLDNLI

In experiment [3] the target is T3, GST–Ino2 TAD1 F21R (S. cerevisiae) (UniProt P26798).
T3 sequence: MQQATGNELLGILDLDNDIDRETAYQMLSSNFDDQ

The target in experiment [4] is T4, GST–Ino2 (comprising TAD1 + TAD2, aa 1–135) (S. cerevisiae) (UniProt P26798).
T4 sequence: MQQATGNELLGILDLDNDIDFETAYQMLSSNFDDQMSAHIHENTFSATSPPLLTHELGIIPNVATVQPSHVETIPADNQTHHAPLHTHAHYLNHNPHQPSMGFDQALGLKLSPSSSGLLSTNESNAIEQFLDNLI

In experiment [5] the target is T5, GST–Ino2 TAD1 (aa 1–35) (S. cerevisiae) (UniProt P26798).
T5 sequence: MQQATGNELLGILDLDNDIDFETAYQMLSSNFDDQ

The target of experiment [6] is T6, GST–Flo8 TAD (aa 726–799) (S. cerevisiae) (UniProt P40068).
T6 sequence: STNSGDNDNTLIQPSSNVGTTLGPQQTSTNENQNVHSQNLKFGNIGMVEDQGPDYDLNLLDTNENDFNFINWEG

In experiment [7] the target is T7, GST–Rap1 TAD (aa 630–671) (S. cerevisiae) (UniProt P11938).
T7 sequence: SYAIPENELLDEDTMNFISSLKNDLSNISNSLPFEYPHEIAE

The target of experiment [8] is T8, GST–Leu3 TAD (aa 841–886) (S. cerevisiae) (UniProt P08638).
T8 sequence: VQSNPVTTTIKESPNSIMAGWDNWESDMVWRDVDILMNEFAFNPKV

Experiment [9] concerns the target T9, GST–Aro80 TAD (aa 846–950) (S. cerevisiae) (UniProt Q04052).
T9 sequence: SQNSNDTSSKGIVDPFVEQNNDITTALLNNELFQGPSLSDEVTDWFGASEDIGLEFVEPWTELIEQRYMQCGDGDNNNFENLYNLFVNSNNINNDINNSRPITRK

Experiment [10] addresses T10, GST–Swi5 TAD (aa 1–85) (S. cerevisiae) (UniProt P08153).
T10 sequence: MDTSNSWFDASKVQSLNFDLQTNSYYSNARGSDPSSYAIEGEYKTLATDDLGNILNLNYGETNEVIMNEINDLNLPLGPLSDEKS

In experiment [11] the target is GST–Gal4 TAD (aa 768–881) (S. cerevisiae) (UniProt P04386).

No constants are given. Whether binding was seen depends on the method and setting. Binding seen in cells or lysates may run through a third protein. Some results given as binding are weak or reduced against the parent protein; the word gives no strength. Tags and fused reporters may be left off the sequences shown.

B1: HA-Toa1 synthesized in yeast (MET25-HA3-TOA1) (protein, UniProt P32773 1-286)
chain: MSNAEASRVYEIIVESVVNEVREDFENAGIDEQTLQDLKNIWQKKLTETKVTTFSWDNQFNEGNINGVQNDLNFNLATPGVNSSEFNIKEENTGNEGLILPNINSNNNIPHSGETNINTNTVEATNNSGATLNTNTSGNTNADVTSQPKIEVKPEIELTINNANITTVENIDDESEKKDDEEKEEDVEKTRKEKEQIEQVKLQAKKEKRSALLDTDEVGSELDDSDDDYLISEGEEDGPDENLMLCLYDKVTRTKARWKCSLKDGVVTINRNDYTFQKAQVEAEWV
As to B1, the binding result in experiment [1] is listed as “no binding”; in experiment [2] it was “binds”; in experiment [3], “no binding”; in [4], “binds”; in experiment [5], “binds”.

B2: HA-Bdf1 (full-length), synthesized in S. cerevisiae (protein, UniProt P35817 1-686)
chain: MTDITPVQNDVDVNGNNVNDDVSSNLKRPIDQGDPSNGLAEEENPANNQLHLKKARLDGDALTSSPAGLAENGIEGATLAANGENGYNATGSGAEDEQQGLKKEEGGQGTKQEDLDENSKQELPMEVPKEPAPAPPPEPDMNNLPQNPIPKHQQKHALLAIKAVKRLKDARPFLQPVDPVKLDIPFYFNYIKRPMDLSTIERKLNVGAYEVPEQITEDFNLMVNNSIKFNGPNAGISQMARNIQASFEKHMLNMPAKDAPPVIAKGRRSSAQEDAPIVIRRAQTHNGRPKRTIHPPKSKDIYPYESKKPKSKRLQQAMKFCQSVLKELMAKKHASYNYPFLEPVDPVSMNLPTYFDYVKEPMDLGTIAKKLNDWQYQTMEDFERDVRLVFKNCYTFNPDGTIVNMMGHRLEEVFNSKWADRPNLDDYDSDEDSRTQGDYDDYESEYSESDIDETIITNPAIQYLEEQLARMKVELQQLKKQELEKIRKERRLARGSKKRGKRSKGRSGSKNASSKGRRDKKNKLKTVVTYDMKRIITERINDLPTSKLERAIDIIKKSMPNISEDDEVELDLDTLDNHTILTLYNTFFRQYESSSGASNGLDGTSGVTRDASSLSPTSAGSRKRRSKALSQEEQSRQIEKIKNKLAILDSASPLSQNGSPGQIQSAAHNGFSSSSDDDVSSESEEE
Consider B2, for which the binding entry is recorded as “binds” in experiment [6]; “binds” in experiment [2]; “binds” in [7]; “binds” in experiment [8]; “no binding” in experiment [9]; “no binding” in experiment [10]. The values for the binding result in experiment [5] and in [11] were “no binding” and “binds”, respectively.

(Values after paper PMC10716077.)
